Experimental data reported in PubChem BioAssay (NCATS).
The shares of active, inactive and inconclusive entries below differ from those in the screen. No potency is given beside an inconclusive call; the fits are too rough. Activity calls are given as the source filed them. Calls come from the whole dose curve; as a rule, active = well fitted inhibition curve with a large enough effect; inconclusive = small, poorly fitted or top-dose-only effect; inactive = flat fitted curve, though single readings scatter.
Potency is the fitted concentration of half-maximal effect; tags give direction and shape of the fitted curve.

The molecules below were run against Glutathione peroxidase 1 (Homo sapiens) (UniProt P07203) (assay: Primary qHTS Assay for Inhibitors of Recombinant Selenoprotein Glutathione Peroxidase 1 (GPX1) (AID 1845191; note: nearly all actives have a fitted effect of over 65% in size)). Conditions: recombinant GPX1, GR-coupled NADPH fluorescence, 15 min; series mostly up to 48.8 µM.
Chain of UniProt P07203 (P07203 whole entry, looked up): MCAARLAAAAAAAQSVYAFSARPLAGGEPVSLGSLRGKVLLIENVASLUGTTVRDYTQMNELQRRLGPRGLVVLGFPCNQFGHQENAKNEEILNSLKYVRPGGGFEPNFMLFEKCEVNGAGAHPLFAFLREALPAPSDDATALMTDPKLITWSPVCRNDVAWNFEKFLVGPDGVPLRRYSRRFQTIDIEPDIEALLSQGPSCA
Summary of the method: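 NADPH consumption tracked by fluorescence at 340/450 nm between t=0 and t=15 min, room temperature. Final mix: 10 nM GPX1, 100 nM glutathione reductase, 1 mM GSH, 0.5 mM NADPH, 0.5 mM cumene hydroperoxide, 0.01% BSA; 30 min compound–enzyme preincubation.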
For `COc1cc(O)c(C(=O)Nc2nc(C(=O)NCCN(C(C)C)C(C)C)cs2)cc1OC`, the Potency was inconclusive [inhibitor, single point].
In the case of `Cc1cc(Nc2cccc(C(F)(F)F)c2)nc2ccc(NC(=O)Cc3ccc(Cl)cc3)cc12`, the Potency is reported as inconclusive [inhibitor, single point].
With `C=CC1=C(C(=O)O)N2C(=O)[C@@H](NC(=O)/C(=N\OCC(=O)O)c3csc(N)n3)[C@H]2SC1` the Potency was active: 7.18 µM.
For `CCC(=O)N1CCOc2c(cc(-c3cc(OC)cc(OC)c3)cc2C(=O)N[C@H]2CCCN(C)C2)C1`, the Potency was “inactive”.
In the case of `CO/N=C(\C(=O)N[C@@H]1C(=O)N2C(C(=O)O)=C(Cn3ccc(=N)n3CCO)CS[C@H]12)c1csc(N)n1`, the Potency is reported as active: 18 µM.
For `CCn1c(=O)c2cc(C(N)=O)c(N)nc2n(C2CC2)c1=O`, the Potency was inconclusive [inhibitor, single point].
`CC/C=C(\C(=O)N[C@H]1C(=O)N2C(C(=O)OCOC(=O)C(C)(C)C)=C(COC(N)=O)CS[C@H]12)c1csc(N)n1` was tested, and the Potency was active: 6.26 µM.
In the case of `C[C@@H](O)[C@H]1C(=O)N2C(C(=O)O)=C(S[C@@H]3CN[C@H](C(=O)Nc4cccc(C(=O)O)c4)C3)[C@H](C)[C@H]12`, the Potency is reported as inconclusive [inhibitor, single point].
`COc1cc(OC)cc(C(=O)Nc2ccc3nc(Nc4cccc(C(F)(F)F)c4)cc(C)c3c2)c1` was tested, and the Potency was inconclusive [inhibitor, single point].
With `Cc1ccc(C(c2sc3nc(-c4ccco4)nn3c2O)N2CCCC2)cc1` (stereo not given) the Potency was inconclusive [inhibitor, single point].
In the case of `Cc1ccc(C(c2sc3nc(-c4ccco4)nn3c2O)N2CCOCC2)cc1` (stereo not given), the Potency is reported as inconclusive [inhibitor, partial curve, poor fit].
With `CC(C)(C)NCC(O)COc1ccccc1C1CCCC1` (stereo not given) the Potency was “inactive”.
In the case of `CC1(C)S[C@H]2[C@H](NC(=O)[C@@H](N)c3ccc(O)cc3)C(=O)N2[C@H]1C(=O)O`, the Potency is reported as inconclusive [inhibitor, single point].
`COc1cc(/C=C/c2cn(-c3ccc(C(=O)O)cc3)nc2/C=C/c2ccc(O)c(OC)c2)ccc1O` was tested, and the Potency was inconclusive [inhibitor, partial curve].
With `Cc1onc(-c2c(F)cccc2Cl)c1C(=O)N[C@@H]1C(=O)N2[C@@H]1SC(C)(C)[C@H]2C(=O)O` the Potency was inconclusive [inhibitor, partial curve].
With `CN(C)CCCNc1c2ccccc2nc2c1[nH]c1ccccc12` the Potency was active: 22.7 µM.
For `CO/N=C(\C(=O)N[C@@H]1C(=O)N2C(C(=O)O)=C(CSc3nnnn3C)CS[C@H]12)c1csc(N)n1`, the Potency was active: 11.4 µM.
With `CC(=O)N[C@H]1[C@H](O[C@@H]2c3ccc(c(Cl)c3)Oc3cc4cc(c3O[C@@H]3O[C@H](CO)[C@@H](O)[C@H](O)[C@H]3NC(=O)CCCCCCCC(C)C)Oc3ccc(cc3Cl)C[C@H]3NC(=O)[C@H](N)c5ccc(O)c(c5)Oc5cc(O)cc(c5)[C@H](NC3=O)C(=O)N[C@H]4C(=O)N[C@H]3C(=O)N[C@@H]2C(=O)N[C@@H](C(=O)O)c2cc(O)cc(O[C@H]4O[C@H](CO)[C@@H](O)[C@H](O)[C@@H]4O)c2-c2cc3ccc2O)O[C@H](CO)[C@@H](O)[C@@H]1O` the Potency was inconclusive [inhibitor, single point].
In the case of `CC(C)(C)NC(=O)[C@@H]1C[C@@H]2CCCC[C@H]2CN1C[C@@H](O)[C@H](Cc1ccccc1)NC(=O)[C@H](CC(N)=O)NC(=O)c1ccc2ccccc2n1`, the Potency is reported as inconclusive [inhibitor, partial curve].
In the case of `COc1ccccc1Nc1nc(-c2sc(NC(C)=O)nc2C)cs1`, the Potency is reported as active: 20.2 µM.
For `OC[C@H]1O[C@H](O)[C@H](O)[C@@H](O)[C@@H]1O`, the Potency was inconclusive [inhibitor, full curve].
In the case of `CC(=O)OCC1=C(C(=O)O)N2C(=O)[C@@H](NC(=O)CC#N)[C@H]2SC1`, the Potency is reported as inconclusive [inhibitor, single point].
With `CO/N=C(\C(=O)N[C@@H]1C(=O)N2C(C(=O)O)=C(C[N+]3(C)CCCC3)CS[C@H]12)c1csc(N)n1` the Potency was active: 11.4 µM.
`Cc1cc2nc3c(=O)[nH]c(=O)nc-3n(C[C@@H](O)[C@@H](O)[C@@H](O)COP(=O)(O)O)c2cc1C` was tested, and the Potency was inconclusive [inhibitor, partial curve].
`CCC(C)CNCC(=O)N1CCc2sccc2C1c1cccc(C)n1` (stereo not given) was tested, and the Potency was inconclusive [inhibitor, single point].
With `CC(C)=CCC[C@](C)(O[C@@H]1O[C@H](CO[C@@H]2O[C@H](CO)[C@@H](O)[C@H](O)[C@H]2O)[C@@H](O)[C@H](O)[C@H]1O)[C@H]1CC[C@]2(C)[C@@H]1[C@H](O)C[C@@H]1[C@@]3(C)CC[C@H](O[C@@H]4O[C@H](CO)[C@@H](O)[C@H](O)[C@H]4O[C@@H]4O[C@H](CO)[C@@H](O)[C@H](O)[C@H]4O)C(C)(C)[C@@H]3CC[C@]12C` the Potency was “inactive”.
For `O=C(N[C@H]1CCS[C@H]2CCC[C@@H](C(=O)O)N2C1=O)[C@@H](S)Cc1ccccc1`, the Potency was active: 10.1 µM.
In the case of `Oc1c(C(c2ccccc2)N2CCC(O)CC2)sc2nc(-c3ccco3)nn12` (stereo not given), the Potency is reported as inconclusive [inhibitor, partial curve, poor fit].
With `CC1CCCC(C)N1C(=S)Nc1cccc(C(F)(F)F)c1` (stereo not given) the Potency was active: 22.7 µM.
`Nc1c(C(=O)Nc2ccc(F)cc2)sc2nc(-c3cccs3)cc(C(F)(F)F)c12` was tested, and the Potency was active: 14.3 µM.
For `S=c1ssc2c1CCC2`, the Potency was active: 14.3 µM.
`CCN1CCN(C(=O)N[C@@H](C(=O)N[C@]2(OC)C(=O)N3C(C(=O)O)=C(CSc4nnnn4C)CS[C@@H]32)[C@H](C)O)C(=O)C1=O` was tested, and the Potency was inconclusive [inhibitor, partial curve].
In the case of `C[C@]12C=CC(=O)C=C1CCC1C2[C@@H](O)C[C@@]2(C)C1CC[C@]2(O)C(=O)COC(=O)CCC(=O)O` (stereo not given in full), the Potency is reported as inconclusive [inhibitor, full curve].
With `NCc1ccc(Oc2ccccc2)cc1` the Potency was “inactive”.
For `COc1cc2nc(N3CCCCC3)nc(NC3CCN(Cc4ccccc4)CC3)c2cc1OC`, the Potency was active: 16.1 µM.
With `COc1cc2nc(N3CCCCC3)nc(NC3CCN(C)CC3)c2cc1OC` the Potency was active: 18 µM.
In the case of `Oc1cc(CNC(=S)/C=C/c2cc(O)c(O)c(Br)c2)cc(O)c1O`, the Potency is reported as active: 8.06 µM.
In the case of `CC(=O)c1cc2cccc(OCC(O)CNC(C)C)c2o1` (stereo not given), the Potency is reported as “inactive”.
`CC1(COc2ccc(N3CCC(Oc4ccc(OC(F)(F)F)cc4)CC3)cc2)Cn2cc([N+](=O)[O-])nc2O1` (stereo not given) was tested, and the Potency was “inactive”.
With `O=C([O-])C[O-].[Pt+2]` the Potency was inconclusive [inhibitor, single point].
